According to US8022188B2, “Immunosuppressant binding antibodies and methods of obtaining and using same” (Abbott Laboratories, priority 2006, dated 2011):
Read-outs that look alike come from different tables or passages of the source.

Experiment: Equilibrium dissociation constant of 29-56-14 scFv expressed on yeast cells
Format: binding
Conditions: read-out: KD for bt-CsA
Protocol: Equilibrium dissociation constant (KD) for bt-CsA antigen was determined in a physiological diluent (composed of PBS, pH 7.4 and 1% BSA). Yeast clones induced for scFv expression were mixed with various concentrations of bt-CsA and allowed to reach equilibrium (4-18 hrs) in either (a) a physiological diluent (composed of PBS, pH 7.4 and 1% BSA); and (b) a selection diluent (composed of PBS, 1% BSA and 10% methanol), chilled on ice, washed, and labeled for flow cytometric measurement. The antibody-normalized, antigen-binding mean fluorescence intensity was plotted against antigen concentration and a non-linear least squares fit (y=m1+m2*m0/(m3+m0)) was used to determine KD. […] The KD value for bt-CsA was used for screening of mutagenic libraries in the presence of excess competitor.

B1: WT CsA 29-56-14 scFv: unmutated scFv from anti-CsA 29-56-14 mouse hybridoma (Novartis), displayed on yeast (antibody, V domains shown)
VH: EVQLQQSGPDLVKPGASMKISCKASGYSFTSYTLNWVRQSPGKNLEWIGLIYPYNGGTNYNQKFNDKATFTVDKSSSTAYMELLSLTSEDSAVYYCARVGYYGTTPYYAMDYWGQGTSVTVSS
VL: DIVLTQSPASLAVSLGQRATISCRASKSVDYYGISFMNWFQQKPGQPPKLLIYAASSQGSGVPARFSGSGSGTDFSLSIHPMEEDDTAMYFCQHSKEVPWTFGGGTNLEIKRA
modifications: scFv linker missing; Mouse; CDS (1)..(369); CDS (1)..(339)
Work on B1 yielded a Kd (physiological diluent (PBS pH 7.4, 1% BSA)) of 0.56 nM and a Kd (selection diluent (PBS, 1% BSA, 10% methanol)) of 2 nM.
